Reference: US20250250312A1, “BIFUNCTIONAL PEPTIDE WITH MUCOADHESIVE AND VIRUS BINDING PROPERTIES” (priority 2022, published 2025)
Read-outs that look alike come from different tables or passages of the source. Part of at least one peptide drawing is inferred or uncertain, most often the ends. For part of these data: At least one compound was matched to its structure with a doubt left. Where a SMILES comes first, the peptide text is derived from it. Bridges are numbered along the chain shown (N, C = ends). [ ]: non-standard residue; d: D form. R8 = C=CCCCCCC[C@@](C)(N)C(=O)O; S5 = C=CCCC[C@](C)(N)C(=O)O

Assays:
[1] = molecular target: receptor binding domain (RBD) of SARS-CoV-2 (2019-nCoV) (Severe acute respiratory syndrome coronavirus 2, UniProt P0DTC2); settings: MST
[2] = Helicity of virus binding peptides; assay type: physicochemical
[3] = Table 4, 2019-nCov, cysteines in reduced state
[4] = Table 2, towards SARS-CoV-2, strain not given
[5] = Table 2, lactam-stapled peptides
[6] = Table 5, 2019-nCov, cysteines oxidized (intramolecular disulfide)

## CC(C)C[C@H](NC(=O)[C@H](CC(=O)O)NC(=O)[C@H](CCC(=O)O)NC(=O)[C@H](C)NC(=O)[C@H](CCC(=O)O)NC(=O)[C@H](Cc1c[nH]cn1)NC(=O)[C@H](CS)NC(=O)[C@H](Cc1ccccc1)NC(=O)[C@H](CCCCN)NC(=O)[C@H](CC(=O)O)NC(=O)[C@H](CC(C)C)NC(=O)[C@H](Cc1ccccc1)NC(=O)[C@@H](NC(=O)[C@H](CCCCN)NC(=O)[C@H](C)NC(=O)[C@H](CCC(N)=O)NC(=O)[C@H](CCC(=O)O)NC(=O)[C@@H](N)CCC(=O)O)[C@@H](C)O)C(=O)N[C@@H](Cc1ccccc1)C(=O)N[C@@H](Cc1ccc(O)cc1)C(=O)N[C@@H](CCC(N)=O)C(=O)N[C@@H](CO)C(=O)N[C@@H](CO)C(N)=O [p4C12]
[1]; [3]
  Kd: 2050 nM

## CC(C)C[C@H](NC(=O)[C@H](CC(=O)O)NC(=O)[C@H](CCC(=O)O)NC(=O)[C@H](C)NC(=O)[C@H](CCC(=O)O)NC(=O)[C@H](CS)NC(=O)[C@H](CC(N)=O)NC(=O)[C@H](Cc1ccccc1)NC(=O)[C@H](CCCCN)NC(=O)[C@H](CC(=O)O)NC(=O)[C@H](CC(C)C)NC(=O)[C@H](Cc1ccccc1)NC(=O)[C@@H](NC(=O)[C@H](CCCCN)NC(=O)[C@H](C)NC(=O)[C@H](CCC(N)=O)NC(=O)[C@H](CCC(=O)O)NC(=O)[C@@H](N)CCC(=O)O)[C@@H](C)O)C(=O)N[C@@H](Cc1ccccc1)C(=O)N[C@@H](Cc1ccc(O)cc1)C(=O)N[C@@H](CCC(N)=O)C(=O)N[C@@H](CO)C(=O)N[C@@H](CO)C(=O)O [p4C13]
[1]; [3]
  Kd: 28 nM

## CC(C)C[C@H](NC(=O)[C@H](CC(=O)O)NC(=O)[C@H](CCC(=O)O)NC(=O)[C@H](CS)NC(=O)[C@H](CCC(=O)O)NC(=O)[C@H](Cc1c[nH]cn1)NC(=O)[C@H](CC(N)=O)NC(=O)[C@H](Cc1ccccc1)NC(=O)[C@H](CCCCN)NC(=O)[C@H](CC(=O)O)NC(=O)[C@H](CC(C)C)NC(=O)[C@H](Cc1ccccc1)NC(=O)[C@@H](NC(=O)[C@H](CCCCN)NC(=O)[C@H](C)NC(=O)[C@H](CCC(N)=O)NC(=O)[C@H](CCC(=O)O)NC(=O)[C@@H](N)CCC(=O)O)[C@@H](C)O)C(=O)N[C@@H](CS)C(=O)N[C@@H](Cc1ccc(O)cc1)C(=O)N[C@@H](CCC(N)=O)C(=O)N[C@@H](CO)C(=O)N[C@@H](CO)C(=O)O [p4C15, 19]
[1]; [3]
  Kd: 238 nM

## CC(C)C[C@H](NC(=O)CNC(=O)[C@H](CO)NC(=O)[C@H](CO)NC(=O)[C@H](CCC(N)=O)NC(=O)[C@H](Cc1ccc(O)cc1)NC(=O)[C@H](Cc1ccccc1)NC(=O)[C@H](CC(C)C)NC(=O)[C@H](CC(=O)O)NC(=O)[C@H](CCC(=O)O)NC(=O)[C@H](C)NC(=O)[C@H](CCC(=O)O)NC(=O)[C@H](Cc1c[nH]cn1)NC(=O)[C@@H]1CC(=O)NCCCC[C@H](NC(=O)[C@H](Cc2ccccc2)NC(=O)[C@@H](NC(=O)[C@H](CCCCN)NC(=O)[C@H](C)NC(=O)[C@H](CCC(N)=O)NC(=O)[C@H](CCC(=O)O)NC(=O)[C@@H](N)CCC(=O)O)[C@@H](C)O)C(=O)N[C@@H](CC(=O)O)C(=O)N[C@@H](CCCCN)C(=O)N[C@@H](Cc2ccccc2)C(=O)N1)C(=O)NCC(=O)N[C@@H](CCCCN)C(=O)NCC(=O)N[C@@H](CC(=O)O)C(=O)N[C@@H](Cc1ccccc1)C(=O)N[C@@H](CCCNC(=N)N)C(N)=O [p6(K)8(D)12] (H-EEQAKTFKDKFDHEAEDLFYQSSGLGKGDFR-NH2; lactam 8-12; N-terminus and C-terminus assumed)
[1]; [4]
  Kd: 5000 ± 3000 nM
[2]; [5]
  Helicity: 10%

## CC(C)C[C@H](NC(=O)CNC(=O)[C@H](CO)NC(=O)[C@@H]1CC(=O)NCCCC[C@H](NC(=O)[C@H](CC(=O)O)NC(=O)[C@H](CCC(=O)O)NC(=O)[C@H](C)NC(=O)[C@H](CCC(=O)O)NC(=O)[C@H](Cc2c[nH]cn2)NC(=O)[C@@H]2CC(=O)NCCCC[C@H](NC(=O)[C@H](Cc3ccccc3)NC(=O)[C@@H](NC(=O)[C@H](CCCCN)NC(=O)[C@H](C)NC(=O)[C@H](CCC(N)=O)NC(=O)[C@H](CCC(=O)O)NC(=O)[C@@H](N)CCC(=O)O)[C@@H](C)O)C(=O)N[C@@H](CC(=O)O)C(=O)N[C@@H](CCCCN)C(=O)N[C@@H](Cc3ccccc3)C(=O)N2)C(=O)N[C@@H](Cc2ccccc2)C(=O)N[C@@H](Cc2ccc(O)cc2)C(=O)N[C@@H](CCC(N)=O)C(=O)N1)C(=O)NCC(=O)N[C@@H](CCCCN)C(=O)NCC(=O)N[C@@H](CC(=O)O)C(=O)N[C@@H](Cc1ccccc1)C(=O)N[C@@H](CCCNC(=N)N)C(N)=O [p6(K)8,18(D)12,22] (H-EEQAKTFKDKFDHEAEDKFYQDSGLGKGDFR-NH2; lactam 8-12, 18-22; N-terminus and C-terminus assumed)
[1]; [4]
  Kd: 10000 ± 1000 nM
[2]; [5]
  Helicity: 28%

## CC(C)C[C@H](NC(=O)CNC(=O)[C@H](CO)NC(=O)[C@]1(C)CCCC=CCCCCCC[C@@](C)(NC(=O)[C@H](CCC(=O)O)NC(=O)[C@H](Cc2c[nH]cn2)NC(=O)[C@H](CC(N)=O)NC(=O)[C@H](Cc2ccccc2)NC(=O)[C@H](CCCCN)NC(=O)[C@H](CC(=O)O)NC(=O)[C@H](CC(C)C)NC(=O)[C@H](Cc2ccccc2)NC(=O)[C@@H](NC(=O)[C@H](CCCCN)NC(=O)[C@H](C)NC(=O)[C@H](CCC(N)=O)NC(=O)[C@H](CCC(=O)O)NC(=O)[C@@H](N)CCC(=O)O)[C@@H](C)O)C(=O)N[C@@H](CCC(=O)O)C(=O)N[C@@H](CC(=O)O)C(=O)N[C@@H](CC(C)C)C(=O)N[C@@H](Cc2ccccc2)C(=O)N[C@@H](Cc2ccc(O)cc2)C(=O)N[C@@H](CCC(N)=O)C(=O)N1)C(=O)NCC(=O)N[C@@H](CCCCN)C(=O)NCC(=O)N[C@@H](CC(=O)O)C(=O)N[C@@H](Cc1ccccc1)C(=O)N[C@@H](CCCNC(=N)N)C(N)=O [p6-cyc] (H-EEQAKTFLDKFNHE[R8]EDLFYQ[S5]SGLGKGDFR-NH2; staple 15-22; N-terminus and C-terminus assumed)
[1]; Table 1, target strain 2019-nCov
  Kd: 270 ± 140 nM
[1]; Table 3, towards SARS-CoV-2, strain not given
  Kd: 275 ± 142 nM
[2]; Table 1, PBS:trifluoroethanol 1:1
  Helicity in PBS:TFE, 1:1: 43
[2]; Table 1, phosphate-buffered saline
  Helicity in PBS: 25%
[2]; Table 3, RCM-stapled peptides
  Helicity: 28%

## CC(C)C[C@@H]1NC(=O)CNC(=O)[C@@H](NC(=O)[C@H](CO)NC(=O)[C@H](CCC(N)=O)NC(=O)[C@H](Cc2ccc(O)cc2)NC(=O)[C@H](Cc2ccccc2)NC(=O)[C@H](CC(C)C)NC(=O)[C@H](CC(=O)O)NC(=O)[C@H](CCC(=O)O)NC(=O)[C@H](C)NC(=O)[C@H](CCC(=O)O)NC(=O)[C@H](Cc2c[nH]cn2)NC(=O)[C@H](CC(N)=O)NC(=O)[C@H](Cc2ccccc2)NC(=O)[C@H](CCCCN)NC(=O)[C@H](CC(=O)O)NC(=O)[C@H](CC(C)C)NC(=O)[C@H](Cc2ccccc2)NC(=O)[C@@H](NC(=O)[C@H](CCCCN)NC(=O)[C@H](C)NC(=O)[C@H](CCC(N)=O)NC(=O)[C@H](CCC(=O)O)NC(=O)[C@@H](N)CCC(=O)O)[C@@H](C)O)CSSC[C@@H](C(=O)O)NC(=O)[C@H](CCCNC(=N)N)NC(=O)[C@H](Cc2ccccc2)NC(=O)[C@H](CC(=O)O)NC(=O)CNC(=O)[C@H](CCCCN)NC(=O)CNC1=O [p6-dis] (H-EEQAKTFLDKFNHEAEDLFYQSCGLGKGDFRC-OH; disulfide 23-32)
[1]; [6]
  Kd: 2600 nM

## CC(C)C[C@@H]1NC(=O)CNC(=O)[C@@H](NC(=O)[C@H](CO)NC(=O)[C@H](CCC(N)=O)NC(=O)[C@H](Cc2ccc(O)cc2)NC(=O)[C@H](Cc2ccccc2)NC(=O)[C@H](CC(C)C)NC(=O)[C@H](CC(=O)O)NC(=O)[C@H](CCC(=O)O)NC(=O)[C@H](C)NC(=O)[C@H](CCC(=O)O)NC(=O)[C@H](Cc2c[nH]cn2)NC(=O)[C@H](CC(N)=O)NC(=O)[C@H](Cc2ccccc2)NC(=O)[C@H](CCCCN)NC(=O)[C@H](CC(=O)O)NC(=O)[C@H](CC(C)C)NC(=O)[C@H](Cc2ccccc2)NC(=O)[C@@H](NC(=O)[C@H](CCCCN)NC(=O)[C@H](C)NC(=O)[C@H](CCC(N)=O)NC(=O)[C@H](CCC(=O)O)NC(=O)[C@H](CCC(=O)O)NC(=O)[C@H](CCCCN)NC(=O)[C@H](C)NC(=O)[C@H](C)NC(=O)[C@H](C)NC(=O)[C@@H](N)CCC(=O)O)[C@@H](C)O)CSSC[C@@H](C(=O)O)NC(=O)[C@H](CCCNC(=N)N)NC(=O)[C@H](Cc2ccccc2)NC(=O)[C@H](CC(=O)O)NC(=O)CNC(=O)[C@H](CCCCN)NC(=O)CNC1=O [p6-rigid-dis] (H-EAAAKEEQAKTFLDKFNHEAEDLFYQSCGLGKGDFRC-OH; disulfide 28-37)
[1]; [6]
  Kd: 5140 nM

## CC(C)C[C@H](NC(=O)CNC(=O)[C@H](CO)NC(=O)[C@H](CO)NC(=O)[C@H](CCC(N)=O)NC(=O)[C@H](Cc1ccc(O)cc1)NC(=O)[C@H](Cc1ccccc1)NC(=O)[C@H](CC(C)C)NC(=O)[C@H](CC(=O)O)NC(=O)[C@H](CCC(=O)O)NC(=O)[C@H](C)NC(=O)[C@H](CCC(=O)O)NC(=O)[C@H](Cc1c[nH]cn1)NC(=O)[C@H](CC(N)=O)NC(=O)[C@H](Cc1ccccc1)NC(=O)[C@H](CCCCN)NC(=O)[C@H](CC(=O)O)NC(=O)[C@H](CC(C)C)NC(=O)[C@H](Cc1ccccc1)NC(=O)[C@@H](NC(=O)[C@H](CCCCN)NC(=O)[C@H](C)NC(=O)[C@H](CCC(N)=O)NC(=O)[C@H](CCC(=O)O)NC(=O)[C@H](CCC(=O)O)NC(=O)[C@H](CCCCN)NC(=O)[C@H](C)NC(=O)[C@H](C)NC(=O)[C@H](C)NC(=O)[C@@H](N)CCC(=O)O)[C@@H](C)O)C(=O)NCC(=O)N[C@@H](CCCCN)C(=O)NCC(=O)N[C@@H](CC(=O)O)C(=O)N[C@@H](Cc1ccccc1)C(=O)N[C@@H](CCCNC(=N)N)C(=O)O [p6-rigid]
[1]; [6]
  Kd: 4530 nM
